# The supplement of paper PMC3334620
# The full ranking holds about 33,000 sequences; the median of “E-score (-0.5 to 0.5)” is about -0.017, and the highest 2% start at about 0.3. This is one part of the list.
# Molecular target: T1, Sut1 (UniProt P53032)
# T1 sequence: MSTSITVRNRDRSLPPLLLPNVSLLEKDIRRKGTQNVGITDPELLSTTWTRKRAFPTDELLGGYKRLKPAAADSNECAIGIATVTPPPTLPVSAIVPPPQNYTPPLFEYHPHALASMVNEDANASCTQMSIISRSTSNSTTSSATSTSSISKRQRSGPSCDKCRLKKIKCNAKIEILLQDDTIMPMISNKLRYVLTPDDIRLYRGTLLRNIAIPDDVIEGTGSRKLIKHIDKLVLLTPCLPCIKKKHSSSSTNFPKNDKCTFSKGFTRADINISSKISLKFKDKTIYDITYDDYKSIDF
# Assay: PBM E-score (8-mer binding enrichment) (E-score (-0.5 to 0.5)); higher = stronger / more preferred TF binding; most listed sequences are background and not binding sites
# Conditions: protein concentration: 200 nM; construct: GST-full length
# Protocol: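 Universal 'all 10-mer' protein binding microarrays (Agilent AMADID 015681) probed with GST-tagged S. cerevisiae TFs (full-length or DBD) made by in vitro transcription/translation (PURExpress), about 100-200 nM. Bound TF was detected with fluorescent anti-GST. Each ungapped 8-mer (which stands for itself and its reverse complement) is scored by the PBM enrichment score (E-score), a modified Wilcoxon-Mann-Whitney statistic from -0.5 to +0.5, computed with the Universal PBM Analysis Suite. Scale: above 0.35 generally sequence-specific binding.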
row,Sequence,PBM E-score
1,ATCGTTTA,0.124
2,ATGCGCCC,-0.223
3,AGCTGGAG,-0.236
4,ATGAAGGG,0.00787
5,GACAGTAA,0.111
6,TGAATAAA,0.0668
7,CGTTGGGA,-0.0248
8,ACAACGAA,0.106
9,ACAATTCC,-0.0138
10,ACTGCAAT,-0.00458
11,GCCCAGGC,-0.179
12,CGCCGAAG,0.0368
13,ACCACTGG,-0.0781
14,CGACCACA,-0.0754
15,AGCAGCAG,-0.139
16,ACTCGCGA,0.05
17,GACGCGCC,-0.265
18,AACATAAT,0.27
19,GTGGTATA,0.0941
20,CAAAATGA,-0.00019
21,ATTATGGC,0.057
22,ACGAGCAA,-0.114
23,CCCCCTGA,-0.336
24,CCTTATCC,-0.177
25,AGGGGGCA,-0.32

row,Sequence,PBM E-score
1,ATCTGTTA,0.168
2,AAGAAACT,0.227
3,CGATCCCA,-0.0711
4,ACCATGAG,-0.166
5,AGATCCTC,-0.167
6,CAATTTTC,0.116
7,CTATCGTA,-0.0469
8,CAATGAAC,-0.0358
9,ACACCACG,-0.12
10,AGAGCTGC,-0.155
11,GATAATCC,0.126
12,AGTATAGC,-0.0323
13,ATGCTACA,-0.0501
14,CCTGCACG,-0.21
15,AAGGTAGC,-0.204
16,CGTAAGAA,0.0769
17,CTATTGAC,0.0306
18,ATAAGCCA,-0.103
19,CGCCCACA,-0.126
20,ACAGGTGG,-0.18
21,AGCGTTCG,-0.087
22,ATAGGGCG,-0.0768
23,TAAAGGAA,0.0683
24,CGTAGACC,-0.239
25,GACCATAA,-0.00944

row,Sequence,PBM E-score
1,AGTGCGTC,-0.103
2,CGCGTACA,-0.079
3,AACCACGC,-0.133
4,ACAGTTAC,0.108
5,CGGTCGGA,0.211
6,ACAATATC,0.126
7,CTATGGTA,0.0377
8,CCGCCGGA,0.223
9,GATTGTCC,0.0682
10,GCTCACGA,-0.0641
11,ATGCTGTC,-0.166
12,ATGCGTGA,-0.092
13,AACCAAGC,0.023
14,CATTACTC,-0.0016
15,AGGAGCAG,-0.278
16,AAACCATT,0.0591
17,GTAATGAA,0.105
18,ATCACCGG,0.0777
19,ATTCCGTA,0.296
20,ATTTGGTG,-0.0427
21,ACCATGTA,0.12
22,GCTTAAAC,0.0611
23,CCGCATAG,-0.113
24,CTCGCCAA,0.0328
25,GAGAACGC,-0.0454

row,Sequence,PBM E-score
1,CCTGAGTC,-0.119
2,ATGTGCCC,-0.159
3,ACACATGG,-0.146
4,CTAAGGAA,0.0416
5,GTGAGGCA,0.0696
6,CCCCCTCC,-0.325
7,CTGCTCGA,-0.271
8,AAACTCGA,-0.0156
9,AGGTCCAG,-0.0827
10,CAGAAGAC,-0.17
11,CGCGTGCC,-0.0161
12,ACCATATG,-0.0878
13,TAGCCCCA,-0.121
14,CTTTGCTA,-0.0601
15,CGCCGTAA,0.0597
16,GCGTTTAC,-0.0629
17,AAGTCCCT,-0.131
18,GGAGAAGA,0.00674
19,TCCCCTCA,-0.188
20,AGGAGAGG,-0.264
21,AGGCAGGG,-0.133
22,ATAGGAAT,0.0366
23,CAGCGAGC,-0.155
24,GAAGCCCC,-0.24
25,GAAATACC,0.138

row,Sequence,PBM E-score
1,CAGCATGG,-0.251
2,CTTCATGA,0.0102
3,ATATGACC,-0.121
4,AGCCCGCC,-0.168
5,GAACGCTC,-0.157
6,AGCAATCA,0.0713
7,ACGCACCC,-0.254
8,CTACGTTC,-0.103
9,ATCAGAAT,0.0989
10,CTCTGTAC,-0.079
11,GTCTCCAA,-0.0301
12,CCTCCTAC,-0.165
13,GTACTAAA,0.266
14,CCGACGTA,-0.0314
15,ACACTAAC,0.168
16,CACACCCA,-0.114
17,ACTAGTGC,0.0535
18,ATTTTTGG,-0.0383
19,CGATAGAC,-0.206
20,ATCGCCCC,-0.291
21,CTTACTAC,0.0954
22,CAGGACTG,-0.291
23,GGAGGGAC,-0.137
24,CACCCGGA,0.251
25,CCCCGGAC,0.357

row,Sequence,PBM E-score
1,CAACGGAG,0.399
2,CCACTCAG,-0.159
3,CTTACAGC,-0.179
4,GTCGTCTA,0.0145
5,AGTAAACA,0.235
6,AGGCCTCA,-0.304
7,CAAGAAGC,0.0616
8,CGAACGCG,-0.115
9,TCCCTCGA,-0.267
10,CGTTTCGC,0.0561
11,GCAACTAA,0.146
12,AGGGGACT,-0.186
13,GAGTTAGC,0.121
14,ACCTTTGG,-0.287
15,GTGCGCAA,-0.122
16,ACTAACGA,-0.0331
17,CGTCGTGA,-0.203
18,GCCCCGCC,-0.145
19,CCTTCATA,0.131
20,ACTATGAA,0.176
21,ATGGGCGA,-0.235
22,CGCAGCTC,-0.0365
23,GGAGTCAC,0.21
24,GCCTTTCA,0.0144
25,ATGGCAGG,-0.136

row,Sequence,PBM E-score
1,GTCCGCAA,0.298
2,AGACAAGG,-0.0403
3,CGGCAGCA,-0.185
4,CGACTTCC,0.017
5,GCGCTTAA,-0.0252
6,TCGTGGCA,-0.0581
7,AGGTCGCG,-0.171
8,ACCTACCA,-0.0122
9,CGAGAGGC,-0.235
10,AAATACTC,0.157
11,GCGTCTAA,-0.155
12,ATGGCGGG,-0.11
13,CGCTAGAA,-0.109
14,AGTTGAGG,-0.0723
15,ACTTATCC,0.143
16,AAGGTTTC,0.156
17,GCCTGGAC,-0.336
18,ACCTGCTA,-0.134
19,GAGCTTGA,-0.0638
20,CGGAACCC,-0.0296
21,AGAGAAGG,-0.19
22,ATTGAATC,0.00919
